{"source": "PubChem BioAssay AID1508623", "about": "(National Center for Advancing Translational Sciences (NCATS), 2021)", "note": "In all, about 48,000 compounds went through this assay and about 450 (0.94%) were called active. Inconclusive results (about 19%) are left out. The call rests on the fitted dose curve; in most records, active means well fitted inhibition curve with a large enough effect; inconclusive means small, poorly fitted or top-dose-only effect; inactive means no such curve, though single readings can be large or run the other way. Some of the results follow. Potency means the concentration at half of the fitted maximal effect.", "data": [{"assay": "Primary qHTS for Identification of Small Molecule Inhibitors of Huntingtin Promoter Activity; further: nearly all actives have a fitted effect of over 50% in size", "settings": "HEK293 HTT promoter firefly luciferase reporter (activity 0% = vehicle and -100% = no light), 24 h; series mostly up to 57.5 µM; activity change, negative = inhibition: at the top concentration", "summary_of_the_method": "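Firefly luciferase signal from promoter-reporter HEK293 cells was scaled between vehicle (0%) and zero RLU (-100%). Compounds were tested at final concentrations of up to 57.5 uM over 24 h at 37 degrees C. PTC124 at 50 uM final served as control inhibitor.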", "values": [{"smiles": "COc1cccc(NC(=O)Cn2nnc(C(=O)NCc3cccs3)c2N)c1", "activity change, negative = inhibition": "inactive: -6.21%"}, {"smiles": "Cc1ccc2c(CNCCc3ccccc3)c(C(=O)O)n(Cc3ccccc3C)c2c1", "activity change, negative = inhibition": "inactive: -7.61%"}, {"smiles": "Cc1cccc(N(C)c2nc3ccccc3c3nnc(C)n23)c1", "activity change, negative = inhibition": "inactive: -11%"}, {"smiles": "CCOc1ccc(C(=O)Cn2c(=O)n3nc(CCn4nc(C)cc4C)nc3c3cc(OC)c(OC)cc32)cc1", "activity change, negative = inhibition": "inactive: -18.1%"}, {"smiles": "Cc1ccccc1N1CCN(S(=O)(=O)c2nnc(NC(=O)c3ccc(C(C)C)cc3)s2)CC1", "activity change, negative = inhibition": "inactive: -24.2%"}, {"smiles": "CCCCCn1c(NCc2ccc(OC)cc2)nc2ccccc21", "activity change, negative = inhibition": "inactive: -45.4%"}, {"smiles": "Cc1ccc(NC(=O)CSc2nnc(-c3ccc([N+](=O)[O-])cc3)o2)c(C)c1", "activity change, negative = inhibition": "inactive: 6.67%"}, {"smiles": "Cc1ccc(C(=O)c2cn(CC(=O)Nc3ccc(C(C)C)cc3)c3nc(C)ccc3c2=O)cc1", "activity change, negative = inhibition": "inactive: 7.59%"}, {"smiles": "Cc1cc(C)n(-c2nc3ccccc3nc2Nc2ccc(N(C)C)cc2)n1", "activity change, negative = inhibition": "inactive: -4.65%"}, {"smiles": "COc1ccc(-n2nc(C(=O)Nc3ccccn3)c3c4ccccc4n(C)c3c2=O)cc1", "activity change, negative = inhibition": "inactive: -11.8%"}, {"smiles": "CCOC(=O)c1ccc(NC(=O)c2cnc3c(-c4ccc(F)cc4)c(C)nn3c2C)cc1", "activity change, negative = inhibition": "inactive: -14.2%"}, {"smiles": "CCOc1ccc(-c2nc3c(c(SCC(=O)Nc4ccccc4C)n2)Cc2ccccc2O3)cc1", "activity change, negative = inhibition": "inactive: -10.5%"}, {"smiles": "Cc1cc(C)cc(NC(=O)Cn2c(-c3cncs3)nc3ccccc32)c1", "activity change, negative = inhibition": "inactive: -12.2%"}, {"smiles": "Cc1ccccc1NC(=O)CC(NCc1cccnc1)C(=O)O", "note": "(centres undefined)", "activity change, negative = inhibition": "inactive: -2.55%"}, {"smiles": "Cc1ccccc1CNC(=O)c1ccc2c(c1)c(C)c(C)n2C", "activity change, negative = inhibition": "inactive: 1.86%"}, {"smiles": "CN(C)c1ccc(CNC(=O)c2ccc(Cn3c(SCc4ccccc4)nc4cccnc43)cc2)cc1", "activity change, negative = inhibition": "inactive: -16.2%"}, {"smiles": "Cc1ccc(Cl)cc1NC(=O)C1CCN(c2nnc(C)c3c(C)n(-c4ccccc4)nc23)CC1", "activity change, negative = inhibition": "inactive: 0.363%"}, {"smiles": "CCc1ccc(CNC(=O)c2cnc3sc(N4CCCC4)nn3c2=O)cc1", "activity change, negative = inhibition": "inactive: 9.14%"}, {"smiles": "Cc1cc(C)c(Cn2c3ccccc3c3cnn(CC(=O)NCc4cccs4)c(=O)c32)c(C)c1", "activity change, negative = inhibition": "inactive: -21.4%"}, {"smiles": "CCc1ccc(-n2c(=O)c3c4c(sc3n(CC(=O)c3ccc(F)cc3)c2=O)CCC4)cc1", "activity change, negative = inhibition": "inactive: -7.49%"}, {"smiles": "COc1ccc(-c2ccc3c(N)c(C(=O)c4ccc(OC)c(OC)c4)sc3n2)cc1", "activity change, negative = inhibition": "inactive: 6.71%"}, {"smiles": "CCC(C)NC(=O)CCCN1C(=O)CCn2nc(-c3cccn3C)cc21", "note": "(centres undefined)", "activity change, negative = inhibition": "inactive: 3.11%"}, {"smiles": "CCc1cccc(NC(=O)COC(=O)c2cn(CC)c3nc(C)ccc3c2=O)c1", "activity change, negative = inhibition": "inactive: -5.91%"}, {"smiles": "COc1ccc(CNC(=O)c2ccc(-c3nc(CSc4ccccc4)c(C)o3)cc2)cc1OC", "activity change, negative = inhibition": "inactive: -23.1%"}, {"smiles": "CCCc1cc(=O)[nH]c(SCC(=O)N2CCN(c3ccccc3)CC2)n1", "activity change, negative = inhibition": "inactive: -17.7%"}, {"smiles": "COc1ccc(CNC(=O)CSCc2nc(-c3ccccc3C)oc2C)cc1", "activity change, negative = inhibition": "inactive: -12.1%"}, {"smiles": "COc1ccccc1C(=O)Nc1ccccc1OCc1cc(=O)n2c(C)csc2n1", "activity change, negative = inhibition": "inactive: -1.63%"}, {"smiles": "CC(C)c1nn2c(=O)cc(COC(=O)c3ccc(NC(=O)COc4ccccc4)cc3)nc2s1", "activity change, negative = inhibition": "inactive: -11.5%"}, {"smiles": "COc1ccc(NC(=O)CN2C(=O)CCn3nc(-c4cccn4C)cc32)cc1Cl", "activity change, negative = inhibition": "inactive: -21%"}, {"smiles": "O=S(=O)(c1ccc(-c2cc(C(F)(F)F)on2)s1)N1CCN(c2ccccc2F)CC1", "activity change, negative = inhibition": "inactive: 3.58%"}, {"smiles": "COC(=O)c1ccccc1NC(=O)c1cc(-c2ccccc2O)no1", "activity change, negative = inhibition": "inactive: -27.2%"}, {"smiles": "CC(=O)Nc1nonc1-c1nnc(SCC(=O)Nc2ccc(C)cc2)n1-c1ccccc1", "activity change, negative = inhibition": "inactive: -17.3%"}, {"smiles": "CCOC(=O)c1sc2cccc(F)c2c1S(=O)(=O)NCc1ccccc1Cl", "activity change, negative = inhibition": "inactive: -28.6%"}, {"smiles": "O=C(CS(=O)(=O)c1cccc2nsnc12)N1CCN(c2cccc(Cl)c2)CC1", "activity change, negative = inhibition": "inactive: -15.7%"}, {"smiles": "COc1ccc(-c2cc(-c3ccccc3)c(C#N)c(SCC(O)CS(=O)(=O)Cc3ccc(Cl)cc3)n2)cc1", "note": "(centres undefined)", "activity change, negative = inhibition": "inactive: -28.4%"}, {"smiles": "CCCN1CCN(c2ncnc3sc(C(=O)Nc4ccc(C(C)C)cc4)c(C)c23)CC1", "activity change, negative = inhibition": "inactive: -26.2%"}, {"smiles": "COc1cccc(N2CCN(C(=O)c3ccc(C)c(NC(=O)c4nsc5ccccc45)c3)CC2)c1", "activity change, negative = inhibition": "inactive: 5.58%"}, {"smiles": "COc1cc(SC)ccc1C(=O)Nc1ccc(S(=O)(=O)Nc2nccc(C)n2)cc1", "activity change, negative = inhibition": "inactive: -0.598%"}, {"smiles": "Cc1ccc(C(c2sc3nc(-c4ccco4)nn3c2O)N2CCCC2)cc1", "note": "(centres undefined)", "activity change, negative = inhibition": "inactive: 8.63%"}, {"smiles": "Cc1cccc(NC(=O)Cn2nnc(-c3nc(-c4ccncc4)no3)c2N)c1", "activity change, negative = inhibition": "inactive: 11.1%"}, {"smiles": "COc1ccc(CN2CCc3c(c(=O)n4ncc(C(=O)N5CCN(c6ccccc6OC)CC5)c4n3C)C2)cc1", "Potency": "active: 1780 nM"}, {"smiles": "Cc1ccc(NC(=O)CN2C(=O)c3ccccc3Sc3ccc(C(=O)N4CCOCC4)cc32)cc1F", "activity change, negative = inhibition": "inactive: -33.6%"}, {"smiles": "CC(C)OC(=O)C(C)(C)Oc1ccc(C(=O)c2ccc(Cl)cc2)cc1", "activity change, negative = inhibition": "inactive"}, {"smiles": "CCc1cccc(NC(=O)Cn2c(C(=O)OC)cc3sc(Cl)cc32)c1", "activity change, negative = inhibition": "inactive: -22.8%"}, {"smiles": "CCN(CC)CCNC(=O)C1CCN(C(=O)c2cnn(-c3ccccc3)c2-n2cccc2)CC1", "activity change, negative = inhibition": "inactive: -9.82%"}, {"smiles": "Cc1ccc(NC(=O)CSc2nc(=O)cc(N)n2-c2ccccc2)cc1", "activity change, negative = inhibition": "inactive: -5.56%"}, {"smiles": "Cc1ccc2nc(NC(=O)CSc3[nH]c(=O)ncc3C)sc2c1", "activity change, negative = inhibition": "inactive: 44%"}, {"smiles": "CC(=O)NCCNC(=O)CCCn1c(=O)[nH]c2ccsc2c1=O", "activity change, negative = inhibition": "inactive: 3.3%"}, {"smiles": "CNC[C@@H](O)[C@@H](O)[C@H](O)[C@H](O)CO", "activity change, negative = inhibition": "inactive: 6.3%"}]}]}
